Measured values as given in a compilation of properties of binary mixtures (doi:10.1039/c0cp02169e).
The densities may have been worked out from excess volumes.

Experiment: xn = mol fraction of the nth substance listed
Conditions: 298.15 K, 101 kPa

CCCC[n+]1ccccc1C.F[B-](F)(F)F + BrCBr
Conditions | mass density [kg/m3]
x2 = 0.1614 | 1283.5
x2 = 0.2193 | 1317.9
x2 = 0.2722 | 1352
x2 = 0.376 | 1428
x2 = 0.4742 | 1513.3
x2 = 0.5351 | 1574.7
x2 = 0.6016 | 1650.4
x2 = 0.7315 | 1833.8
x2 = 0.7945 | 1945.2
x2 = 0.844 | 2046.2
x2 = 0.8995 | 2177
x2 = 0.9535 | 2327.9

CCCC[n+]1ccccc1C.F[B-](F)(F)F + BrCCBr
Conditions | mass density [kg/m3]
x2 = 0.0923 | 1243.7
x2 = 0.1331 | 1263.6
x2 = 0.2385 | 1320

CCCC[n+]1ccccc1C.F[B-](F)(F)F + BrCCCBr
Conditions | mass density [kg/m3]
x2 = 0.1088 | 1246.5
x2 = 0.2115 | 1294
x2 = 0.2977 | 1338.8
x2 = 0.3752 | 1383
x2 = 0.5766 | 1520.6
x2 = 0.625 | 1559.8

CCCC[n+]1ccccc1C.F[B-](F)(F)F + BrCCCCBr
Conditions | mass density [kg/m3]
x2 = 0.0273 | 1211.3
x2 = 0.099 | 1239
x2 = 0.1874 | 1276
x2 = 0.2254 | 1292.9
x2 = 0.3109 | 1333.8
x2 = 0.3364 | 1346.5

BrCBr + CCCC[n+]1ccc(C)cc1.F[B-](F)(F)F
Conditions | mass density [kg/m3]
x1 = 0.0955 | 1228.8
x1 = 0.2106 | 1293
x1 = 0.28 | 1337.6
x1 = 0.3312 | 1373.6
x1 = 0.4082 | 1434.2
x1 = 0.4738 | 1492.9
x1 = 0.5399 | 1559.8
x1 = 0.6065 | 1636.9
x1 = 0.7187 | 1795.5
x1 = 0.8721 | 2098.7
x1 = 0.9289 | 2249
x1 = 0.9777 | 2401.5

BrCCBr + CCCC[n+]1ccc(C)cc1.F[B-](F)(F)F
Conditions | mass density [kg/m3]
x1 = 0.0578 | 1208
x1 = 0.1307 | 1242.7
x1 = 0.2407 | 1301.4
x1 = 0.3346 | 1358.8
x1 = 0.4944 | 1476.2
x1 = 0.5618 | 1535.1

BrCCCBr + CCCC[n+]1ccc(C)cc1.F[B-](F)(F)F
Conditions | mass density [kg/m3]
x1 = 0.1031 | 1225.8
x1 = 0.2013 | 1271.6
x1 = 0.2946 | 1319.8
x1 = 0.3753 | 1366.2
x1 = 0.4475 | 1411.7
x1 = 0.5114 | 1455.8
x1 = 0.5789 | 1506.5
x1 = 0.6308 | 1548.8
x1 = 0.6843 | 1595
x1 = 0.7329 | 1641.9
x1 = 0.8594 | 1779.9
x1 = 0.9018 | 1832.8
x1 = 0.9673 | 1922.2

BrCCCCBr + CCCC[n+]1ccc(C)cc1.F[B-](F)(F)F
Conditions | mass density [kg/m3]
x1 = 0.0554 | 1203.9
x1 = 0.1026 | 1222.7
x1 = 0.1904 | 1259.9
x1 = 0.267 | 1294.7
x1 = 0.3436 | 1332.2
x1 = 0.4165 | 1370.5
x1 = 0.4806 | 1406.8
x1 = 0.5085 | 1423.3

BrCCCCCBr + CCCC[n+]1ccc(C)cc1.F[B-](F)(F)F
Conditions | mass density [kg/m3]
x1 = 0.0869 | 1213.6
x1 = 0.1655 | 1243
x1 = 0.2389 | 1272

BrCBr + CCCC[n+]1cccc(C)c1.F[B-](F)(F)F
Conditions | mass density [kg/m3]
x1 = 0.078 | 1220.9
x1 = 0.133 | 1249.6
x1 = 0.293 | 1347.6
x1 = 0.4706 | 1491.3
x1 = 0.5399 | 1561.3
x1 = 0.61 | 1642.9
x1 = 0.8044 | 1950.4
x1 = 0.875 | 2106.2
x1 = 0.9323 | 2259

BrCCBr + CCCC[n+]1cccc(C)c1.F[B-](F)(F)F
Conditions | mass density [kg/m3]
x1 = 0.0695 | 1213.6
x1 = 0.122 | 1238.4
x1 = 0.244 | 1303.2
x1 = 0.331 | 1356.3
x1 = 0.4907 | 1473.2
x1 = 0.5365 | 1512.2

BrCCCBr + CCCC[n+]1cccc(C)c1.F[B-](F)(F)F
Conditions | mass density [kg/m3]
x1 = 0.0459 | 1201.8
x1 = 0.07 | 1211.9
x1 = 0.2119 | 1277.3
x1 = 0.3039 | 1325.8
x1 = 0.45 | 1414.8
x1 = 0.516 | 1460.5
x1 = 0.6317 | 1551.2
x1 = 0.6901 | 1602.9
x1 = 0.7603 | 1670.8

BrCCCCBr + CCCC[n+]1cccc(C)c1.F[B-](F)(F)F
Conditions | mass density [kg/m3]
x1 = 0.0352 | 1196.7
x1 = 0.099 | 1222
x1 = 0.1915 | 1261.5
x1 = 0.235 | 1281.2
x1 = 0.4401 | 1385.4

BrCCCCCBr + CCCC[n+]1cccc(C)c1.F[B-](F)(F)F
Conditions | mass density [kg/m3]
x1 = 0.0443 | 1198.7
x1 = 0.1295 | 1230.1
x1 = 0.1668 | 1244.4
x1 = 0.238 | 1272.9
